Test results from the RNAGym collection of RNA variant scans (doi:10.1093/nar/gkz1192).
The source gives no read counts; variants with many changes may rest on few reads.

B1: CPEB3 Ribozyme (parent)
chain: UAACAGGGGGCCACAGCAGAAGCGUUCACGUCGCAGCCCCUGUCAGAUUCUGGUGAAUCUGCGAAUUCUGCUGUAUAUCUC

Variants of: B1
Experiment: self-cleavage, relative activity (ratio to wild type); higher = more cleavage; in vitro, sequencing
In short: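 CPEB3 self-cleaving ribozyme mutant libraries were made by rounds of error-prone PCR, barcoded, and transcribed in vitro with T7 RNA polymerase for 5 hours at 37°C. Cleavage occurred during transcription and a 15 min DNase I step before EDTA stop. RNAs were reverse transcribed with template switching and Illumina-sequenced, with DNA sequencing mapping barcodes to variants. Relative activity is the variant's cleaved/total read fraction divided by wild type's (minimum 5 reads), averaged across three batches.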

Question: With UAACAGGAGGCCACAGCAGAAGCGCUCACGUUGCAGCCCCUGUCAGAUUCUGGUGAAUCUGCGAAUUCUGCUGUACAUCUC [G8A U25C C32U U76C] as the variant, how does the self-cleavage read?
Answer: Its self-cleavage is 0.25.

Question: With UAACAGGAGGCCACAGCAGAAGCGCUCACGUCGCGGCCCCUGUCAGAUUCUAGUGAAUCUGCGAAUUCUGCUGUAUAUCUC [G8A U25C A35G G52A] as the variant, how does the self-cleavage read?
Answer: Its self-cleavage is 0.07.

Question: Which self-cleavage does the source give for UAACAGGAGGCCACAGCAGAAGCGCUCACGUCGCAGCCCCUGUCAGAUUCUGGUGAAUCUGCGAAUUCUGCUGUAUAUCCC [G8A U25C U80C] here?
Answer: The self-cleavage was 0.29.

Question: Which self-cleavage does the source give for UAACAGGAGGCCACAGCAGAAGCGCUCACGUCGCAGCCCCUGUCAGAUUCUGGUGAAUCUGUGAAUUCUGCUGUAUAUCUC [G8A U25C C62U] here?
Answer: Its self-cleavage is 0.36.

Question: With UAACAGGAGGCCACAGCAGAAGCGUUCACGUCGCAGCCCCUGUCAGAUUCUGGUGAAUCUGCAAAUUCUGCCGUAUAUCUC [G8A G63A U72C] as the variant, how does the self-cleavage read?
Answer: Its self-cleavage is 0.09.

Question: For UAACAGGAGGCCACAGCAGAAGCGCUCACGCCGCAGCCCCUGUCGGAUUCUGGUGAAUCUGCGAAUUCUGCUGUAUAUCUC [G8A U25C U31C A45G], which self-cleavage is on record?
Answer: The self-cleavage was 0.05.

Question: With UAACAGGAGGCCACAGCAGAAGCGUACACGUCGCAGCCCCUGGCAGAUUCCGGUGAGUCUGUGAAUUCUGCUGUAUACCUC [G8A U26A U43G U51C A57G C62U U78C] as the variant, how does the self-cleavage read?
Answer: Its self-cleavage is 0.03.

Question: With UAACAGGAGGCCACAGCAGAAGCGAUCACGCCGCAGCCCCUGUCAGAUUCUGGUGAAUCUGGGAAUUCUGCUGUGUAUCUC [G8A U25A U31C C62G A75G] as the variant, how does the self-cleavage read?
Answer: The self-cleavage was 0.1.

Question: Which self-cleavage does the source give for UAACAGGAGGCCACAGCAGAAGCGCCCACGUCGCAGCCCCUGUCAGAUUCUGGUGAAUCUGCGAAUUCUGCUGUAUAUCAC [G8A U25C U26C U80A] here?
Answer: Its self-cleavage is 0.08.

Question: With UAACAGGAGGCCACAGCAGAAACGUUCACGUCGCAGCCCCUGUCAGAUUCCGGUGAACCCGCGAAUUCUGCCGUAUAUCCC [G8A G22A U51C U58C U60C U72C U80C] as the variant, how does the self-cleavage read?
Answer: The self-cleavage was 0.12.

Question: Which self-cleavage does the source give for UAACAGGAGGCCACAGCAGAAGCGCUCACGUCGCAGCCCCUGUCAGAUUCUGGUGUAUCUGCGAAUUCUGCCGCAUAUCUC [G8A U25C A56U U72C U74C] here?
Answer: Its self-cleavage is 0.07.

Question: Which self-cleavage does the source give for UAACAGGAGGCCACAGCAGAAGCGAUCACGUCGCAGCCCCUAUCAGAUUCUGGUGAAUCUGCGAAUUCUGCUGCAUAUCUC [G8A U25A G42A U74C] here?
Answer: Its self-cleavage is 0.06.

Question: Which self-cleavage does the source give for UAACAGGAGGCCACAGCAGAAGCGAACACGUCGCAGCCCCUGUCAGAUUCUGGUGAGUCUGCGAAUUCUGCUGUAUAUCUC [G8A U25A U26A A57G] here?
Answer: Its self-cleavage is 0.04.

Question: With UAACAGGAGGCCACAGCAAGAGCGAUCACGUCGCAGCCCCUGUCAGAUUCUGGUGAAUCUGCGAAUUCUGCUGUAUACCUC [G8A G19A A20G U25A U78C] as the variant, how does the self-cleavage read?
Answer: The self-cleavage was 0.09.

Question: For UAACAGGAGGCCACAGCAGAAGCGUUCACCACGCAGCCCCUGUCAGAUUCUGGUGAAUCUGCGAAUUCUGCUAUAUAUCUC [G8A G30C U31A G73A], which self-cleavage is on record?
Answer: Its self-cleavage is 0.27.

Question: Which self-cleavage does the source give for UAACAGGAGGCCACACCAGAAGCGUUCACGUCGCAGCCCCUAUCAGAUUCUGGUGAAUCUGCGAAUUCUGCUGCAUAUCUC [G8A G16C G42A U74C] here?
Answer: Its self-cleavage is 0.07.

Question: With UAACAGGAGGCCACAGCAAAAGCUUUCACGUCGCAGCCCCUGUCAGAUUCUGGUGAAGCUGCGAGUUCUGUUGUAUAUCUC [G8A G19A G24U U58G A65G C71U] as the variant, how does the self-cleavage read?
Answer: Its self-cleavage is 0.11.

Question: For UAACAGGAGGCCACAGCAGAAGCGCUCACGUCGCAGCCCCUGUCAGAUUCUGGUGAAUCAGCGAAUUCUGCUGUGUAUCUC [G8A U25C U60A A75G], which self-cleavage is on record?
Answer: Its self-cleavage is 0.14.

Question: For UAACAGGAGGCCACAGCAGAAGCAUUCACGUCGCAGCCCCUGUCAGAUUCUGGUGAAUCCGCGAAUUCUGCUGUAUAUCUC [G8A G24A U60C], which self-cleavage is on record?
Answer: The self-cleavage was 0.09.

Question: For UAACAGGAGGCCACAGCAAAAGCGUUCACGUCGCAGCCCCUGUCAGAUUCUGGUGUACCUGCGAAUUCUGCUGUAUAUCUC [G8A G19A A56U U58C], which self-cleavage is on record?
Answer: The self-cleavage was 0.1.

Question: For UAACAGGAGGCCACAGCAGAAGCGUACACGUCGCAGCCCUUGUCAGAUUCUGGUGAAUCUGCGAAUUCCGCUGUAUAUCUC [G8A U26A C40U U69C], which self-cleavage is on record?
Answer: The self-cleavage was 0.04.

Question: For UAACAGGAGGCCACAGCAGAAGCACUCACGUCGCAGCCCCUGUCUGAUUCUGGUGAAUCUGCGAAUUCUGCUGUAUAUCUC [G8A G24A U25C A45U], which self-cleavage is on record?
Answer: Its self-cleavage is 0.06.

Question: For UAACAGGAGGCCACAGCAGAAGCGCUCACGCCGCAGCCCCUGUCAGAUUCUGGUGAAUCUGCGAAUACUGCUGUAUAUCUC [G8A U25C U31C U67A], which self-cleavage is on record?
Answer: The self-cleavage was 0.25.

Question: With UAACAGGAGGCCACAGCAGAAGCGCUCACGUCGCAGCCCCCGCCAGAUUCUGGUGAAUCUGAGAAUUCUGCUGUAUAUCUC [G8A U25C U41C U43C C62A] as the variant, how does the self-cleavage read?
Answer: Its self-cleavage is 0.06.

Question: With UAACAGGAGGCCACAGCAGAAGCGUUCACGUCGCAGCCCCUGUCAGAUUCUGGUGAAUCUGCGAAUUCUACUUUAUAUCUC [G8A G70A G73U] as the variant, how does the self-cleavage read?
Answer: Its self-cleavage is 0.21.

Question: With UAACAGGAGGCCACAGCAGAAGCGCCCACGUCGCAGCCCCCGUCAGAUUCUGGUGAAUCUGCGAACUCUGCUGUAUAUCGC [G8A U25C U26C U41C U66C U80G] as the variant, how does the self-cleavage read?
Answer: Its self-cleavage is 0.1.

Question: For UAACAGGAGGCCACAGCAGAAGCGUUCACGUCGCAACCCGUGUCAGAUUCCGGUGAAUCUGCGAAUUCUGCUGUAAAUCUC [G8A G36A C40G U51C U76A], which self-cleavage is on record?
Answer: Its self-cleavage is 0.05.

Question: With UAACAGGAGGCCACAGCAGAAGCGUUCACGUCGCAGCCCCUGUCAGAUUCUGGUUAGUCUGCGAAUUCUGCGGUAUAUCUC [G8A G55U A57G U72G] as the variant, how does the self-cleavage read?
Answer: Its self-cleavage is 0.07.

Question: With UAACAGGAGGCCACAGCAGAAGCGUACACGUCGCUGCCCCUGUCAGAUUCUGGUGAAUCUGCGAAUUCUGCUGUAUAUCUC [G8A U26A A35U] as the variant, how does the self-cleavage read?
Answer: Its self-cleavage is 0.15.

Question: For UAACAGGAGGCCACAGCAGAAGCACUCACGUCGCAGCCCCUGUCAGAUUCAGGCGAAUCUGCGAAUUCUGCUGAAUAUCUC [G8A G24A U25C U51A U54C U74A], which self-cleavage is on record?
Answer: Its self-cleavage is 0.04.

Question: For UAACAGGAGGCCACAGCAGAAGCGCUCACGUCGCAGCCCCUGCCAGAACCUGGUGAAUCUGCGAAUUCUGCUGUAUAUCUC [G8A U25C U43C U48A U49C], which self-cleavage is on record?
Answer: Its self-cleavage is 0.29.

Question: Which self-cleavage does the source give for UAACAGGAGGCCACAGCAGAAGCGCUCACGGCGCAGCCCCUGUCAGAUACUGGUGGAUCUGCGAUUUCUGCUGUGUAUCUC [G8A U25C U31G U49A A56G A65U A75G] here?
Answer: The self-cleavage was 0.

Question: With UAACAGGAGGCCACAGCAGAAGCGUUCACCCCGCAGCCCCCGUCAGAUUCUGGUAAAUCUGCGAAUUCUGCUGUAUAUCCC [G8A G30C U31C U41C G55A U80C] as the variant, how does the self-cleavage read?
Answer: The self-cleavage was 0.06.

Question: For UAACAGGAGGCCACAGCAGAAGCGCUCACGUCGCAGCCCCUGCCAGAUUCUGGUGAAUCUGCGAAUUCAGCUGUAUAUCUC [G8A U25C U43C U69A], which self-cleavage is on record?
Answer: Its self-cleavage is 0.05.
